Laboratory results from the supplement of paper PMC9446081.
In all, about 39,000 compounds went through this assay and about 220 (0.56%) showed activity. Some of the results follow.

test system: Escherichia coli K-12 BW25113; experiment: relative growth (OD600 normalised to plate interquartile mean) (fraction); higher = less growth inhibition, active = 0.2 or less; settings: 50 µM; LB; incubation time: overnight (16-24 h)
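Note: static incubation at 37 °C against the wild-type strain, values averaged over two biological replicates.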

Q: Which relative growth does the source give for `C[C@H]1CN([C@@H](C)CO)C(=O)Cc2cc(NC(=O)C3CCCCC3)ccc2O[C@H]1CN(C)S(=O)(=O)c1cn(C)cn1` here?
A: Its relative growth is inactive: 1.01.

Q: `Cc1ccc(S(=O)(=O)N(C)C[C@@H]2Oc3c(NC(=O)C4CC4)cccc3C(=O)N([C@@H](C)CO)C[C@H]2C)cc1` was tested. Which relative growth did it give?
A: The relative growth was inactive: 0.99.

Q: How did the relative growth turn out when `COC(=O)c1c2oc(c1C(=O)OC)C(=O)N[C@@H](Cc1ccccc1)Cn1cc(nn1)[C@H](Cc1ccccc1)NC(=O)N[C@@H](COC(=O)NCCCCCC(=O)NO)CC2` was run?
A: The relative growth was inactive: 0.904.

Q: How did the relative growth turn out when `CO[C@@H]1CN(C)C(=O)c2ccc(NC(=O)C3CC3)cc2OC[C@@H](C)N(C(=O)Cc2ccccn2)C[C@H]1C` was run?
A: Its relative growth is inactive: 1.

Q: For `COCC(=O)Nc1ccc2c(c1)OC[C@@H](C)N(Cc1ccccc1OC)C[C@@H](C)[C@H](OC)CN(C)C2=O`, which relative growth is on record?
A: The relative growth was inactive: 1.01.

Q: How did the relative growth turn out when `C=CCNC(=O)[C@H]1[C@@H]2C(=O)O[C@@H](c3ccccc3)[C@@H](c3ccccc3)N2[C@@H](c2ccccc2OCCO)[C@]12C(=O)N(C(=O)OCCOC)c1ccc(C#CC3(O)CCCCCC3)cc12` was run?
A: Its relative growth is inactive: 1.02.

Q: `C[C@@H]1CCCCO[C@H](CN(C)Cc2ccc(Cl)c(Cl)c2)[C@@H](C)CN([C@@H](C)CO)C(=O)c2cc(NC(=O)NC3CCCCC3)ccc2O1` was tested. Which relative growth did it give?
A: Its relative growth is inactive: 0.995.

Q: `C[C@H](CO)N1C[C@H](C)[C@@H](CN(C)C(=O)Nc2ccc(C(F)(F)F)cc2)Oc2ccc(NC(=O)C3CCCCC3)cc2C1=O` was tested. Which relative growth did it give?
A: Its relative growth is inactive: 0.999.

Q: How did the relative growth turn out when `C[C@@H]1CCCCO[C@H](CN(C)C(=O)Cc2ccccc2)[C@H](C)CN([C@@H](C)CO)C(=O)c2cc(NC(=O)Cc3ccccc3)ccc2O1` was run?
A: The relative growth was inactive: 0.992.

Q: With `C[C@@H]1CN([C@@H](C)CO)C(=O)c2cc(NC(=O)Cc3cn(C)c4ccccc34)ccc2O[C@@H]1CN(C)S(C)(=O)=O` as the compound, how does the relative growth read?
A: The relative growth was inactive: 0.97.

Q: `CC(=O)Oc1cc(C(C)C)c(OCCN(C)C)cc1C.Cl` was tested. Which relative growth did it give?
A: Its relative growth is inactive: 0.951.

Q: Which relative growth does the source give for `O=C(C[C@H]1CC[C@@H]2[C@H](COC[C@H](O)CN2S(=O)(=O)c2ccccc2)O1)NCc1ccc2c(c1)OCO2` here?
A: The relative growth was inactive: 0.971.

Q: `O=C(CCCCCCC(=O)N/N=C/[C@H](O)[C@@H](O)[C@@H](O)[C@H](O)CO)NO` was tested. Which relative growth did it give?
A: Its relative growth is inactive: 0.975.

Q: For `COc1ccc(CN(C)C[C@@H]2OCCCC[C@@H](C)Oc3ccc(NS(=O)(=O)c4ccc(OC)cc4)cc3C(=O)N([C@H](C)CO)C[C@H]2C)cc1`, which relative growth is on record?
A: The relative growth was inactive: 1.02.

Q: How did the relative growth turn out when `C[C@@H]1CN([C@@H](C)CO)C(=O)c2cc(NC(=O)NC3CCCCC3)ccc2O[C@@H](C)CCCCO[C@H]1CN(C)C(=O)CCC(F)(F)F` was run?
A: Its relative growth is inactive: 0.999.

Q: For `COc1oc(C(=O)NC2CCCCC2)c(-c2ccc(Cl)cc2)c1S(=O)(=O)c1ccc(C(F)(F)F)cc1[N+](=O)[O-]`, which relative growth is on record?
A: Its relative growth is inactive: 0.949.

Q: How did the relative growth turn out when `C[C@H]1CN([C@@H](C)CO)C(=O)CCCn2cc(nn2)CO[C@H]1CN(C)C(=O)c1ccc(N2CCN(C)CC2)cc1` was run?
A: The relative growth was inactive: 0.987.

Q: `C[C@@H]1CCCCO[C@@H](CN(C)C(=O)c2ccccc2)[C@@H](C)CN([C@@H](C)CO)C(=O)c2cc(NC(=O)Nc3ccc(C(F)(F)F)cc3)ccc2O1` was tested. Which relative growth did it give?
A: The relative growth was inactive: 1.01.

Q: With `C[C@@H]1CN([C@H](C)CO)C(=O)c2cc(-c3cccc(C(=O)N(C)C)c3)cnc2O[C@H]1CN(C)S(=O)(=O)c1ccccc1` as the compound, how does the relative growth read?
A: Its relative growth is inactive: 0.986.

Q: With `C[C@@H]1CN([C@@H](C)CO)S(=O)(=O)c2ccc(C#Cc3ccncc3)cc2O[C@H]1CN(C)C(=O)c1ccncc1` as the compound, how does the relative growth read?
A: The relative growth was inactive: 0.99.

Q: Which relative growth does the source give for `Cn1cc(Cl)c(C(=O)O)n1` here?
A: The relative growth was inactive: 1.03.

Q: How did the relative growth turn out when `C[C@@H](NC(=O)C[C@H]1CC[C@@H](NC(=O)CN2CCOCC2)[C@H](CO)O1)c1ccccc1` was run?
A: Its relative growth is inactive: 1.

Q: With `CC(C)NC(=O)Nc1ccc2c(c1)C(=O)N([C@@H](C)CO)C[C@H](C)[C@@H](CN(C)CC1CCCCC1)OCCCC[C@@H](C)O2` as the compound, how does the relative growth read?
A: Its relative growth is inactive: 0.964.

Q: Which relative growth does the source give for `COc1ccc(S(=O)(=O)Nc2ccc3c(c2)CC(=O)N([C@@H](C)CO)C[C@H](C)[C@@H](CN(C)S(C)(=O)=O)O3)cc1` here?
A: The relative growth was inactive: 0.976.

Q: How did the relative growth turn out when `CN(Cc1[nH]nc2c1CCCC2)C(=O)Cc1c[nH]c(=O)n(C)c1=O` was run?
A: The relative growth was inactive: 1.02.

Q: `O=c1cc(-c2cccc(O)c2)oc2ccc(O)cc12` was tested. Which relative growth did it give?
A: The relative growth was inactive: 0.982.

Q: With `C[C@H](CO)N1C[C@H](C)[C@H](CN(C)C(=O)Nc2cccc3ccccc23)Oc2ccc(NC(=O)CCC(F)(F)F)cc2CC1=O` as the compound, how does the relative growth read?
A: The relative growth was inactive: 0.888.

Q: With `Cc1noc(C)c1S(=O)(=O)Nc1ccc2c(c1)CC(=O)N([C@H](C)CO)C[C@H](C)[C@@H](CN(C)Cc1ccncc1)O2` as the compound, how does the relative growth read?
A: Its relative growth is inactive: 0.916.

Q: With `C[C@@H]1CCCCO[C@H](CN(C)C(=O)NC2CCCCC2)[C@@H](C)CN([C@H](C)CO)C(=O)c2cc(NC(=O)Nc3ccc(C(F)(F)F)cc3)ccc2O1` as the compound, how does the relative growth read?
A: Its relative growth is inactive: 1.01.

Q: For `CCCC#Cc1ccc2c(c1)O[C@@H](CN(C)Cc1ccc3c(c1)OCO3)[C@H](C)CN([C@@H](C)CO)S2(=O)=O`, which relative growth is on record?
A: The relative growth was inactive: 1.04.

Q: `C[C@H](CO)N1C[C@H](C)[C@@H](CN(C)S(=O)(=O)c2ccccc2)OCCCC[C@H](C)Oc2ccc(NC(=O)Nc3cccc4ccccc34)cc2C1=O` was tested. Which relative growth did it give?
A: The relative growth was inactive: 1.06.

Q: Which relative growth does the source give for `C[C@H]1CN([C@@H](C)CO)C(=O)Cc2cc(NS(=O)(=O)c3cn(C)cn3)ccc2O[C@H]1CN(C)Cc1ccc(C(=O)O)cc1` here?
A: The relative growth was inactive: 0.968.

Q: `C[C@@H]1CCCCO[C@H](CN(C)CC2CCCCC2)[C@H](C)CN([C@H](C)CO)C(=O)c2cc(NS(=O)(=O)c3ccc(Cl)cc3)ccc2O1` was tested. Which relative growth did it give?
A: Its relative growth is inactive: 0.965.

Q: Which relative growth does the source give for `C[C@@H]1CN([C@H](C)CO)C(=O)Cc2cc(NC(=O)CCC(F)(F)F)ccc2O[C@H]1CN(C)S(=O)(=O)c1cccs1` here?
A: Its relative growth is inactive: 0.984.

Q: Which relative growth does the source give for `COc1ccc(S(=O)(=O)Nc2ccc3c(c2)C(=O)N([C@@H](C)CO)C[C@H](C)[C@@H](CN(C)Cc2ccc(C(=O)O)cc2)OCCCC[C@H](C)O3)cc1` here?
A: The relative growth was inactive: 1.

Q: How did the relative growth turn out when `C[C@H](CO)N1C[C@H](C)[C@@H](CN(C)C(=O)c2ccc(N3CCN(C)CC3)cc2)OCc2cn(nn2)CCCC1=O` was run?
A: The relative growth was inactive: 0.988.

Q: For `C[C@H](CO)N1C[C@H](C)[C@@H](CN(C)C(=O)Nc2ccc3c(c2)OCO3)Oc2ccc(NC(=O)Nc3cccc4ccccc34)cc2C1=O`, which relative growth is on record?
A: Its relative growth is inactive: 1.

Q: `C[C@H]1CN([C@@H](C)CO)C(=O)Cc2cc(NS(C)(=O)=O)ccc2O[C@@H]1CN(C)C(=O)NC1CCCCC1` was tested. Which relative growth did it give?
A: Its relative growth is inactive: 1.01.

Q: How did the relative growth turn out when `C[C@@H]1CN([C@@H](C)CO)C(=O)c2cc(NC(=O)Nc3cccc4ccccc34)ccc2O[C@@H](C)CCCCO[C@H]1CN(C)C(=O)Cc1ccccc1` was run?
A: The relative growth was inactive: 1.04.

Q: With `COCC(=O)Nc1ccc2c(c1)C(=O)N(C)C[C@@H](OC)[C@H](C)CN(C(=O)Nc1ccccc1F)[C@H](C)CO2` as the compound, how does the relative growth read?
A: The relative growth was inactive: 1.02.

Q: Which relative growth does the source give for `COc1ccc(NC(=O)N(C)C[C@H]2Oc3ccc(NC(=O)C4CC4)cc3CC(=O)N([C@@H](C)CO)C[C@@H]2C)cc1` here?
A: Its relative growth is inactive: 1.01.

Q: `C[C@H](CO)N1C[C@H](C)[C@H](CN(C)C(=O)C2CCCCC2)Oc2ncc(C#CC3(O)CCCC3)cc2C1=O` was tested. Which relative growth did it give?
A: Its relative growth is inactive: 0.993.

Q: Which relative growth does the source give for `C[C@H]1CN([C@@H](C)CO)C(=O)Cc2cc(NS(=O)(=O)c3cccs3)ccc2O[C@@H]1CN(C)CC1CC1` here?
A: The relative growth was inactive: 0.977.

Q: `Cc1noc(C)c1S(=O)(=O)Nc1ccc2c(c1)C(=O)N([C@@H](C)CO)C[C@H](C)[C@H](CN(C)S(C)(=O)=O)OCCCC[C@@H](C)O2` was tested. Which relative growth did it give?
A: Its relative growth is inactive: 0.993.

Q: For `C[C@@H]1CN([C@H](C)CO)S(=O)(=O)c2ccc(-c3cccnc3)cc2O[C@H]1CN(C)C(=O)c1cccc(F)c1`, which relative growth is on record?
A: The relative growth was inactive: 1.01.

Q: For `C[C@@H]1CN([C@@H](C)CO)C(=O)c2cc(NC(=O)C3CCCCC3)ccc2O[C@@H](C)CCCCO[C@H]1CN(C)S(=O)(=O)c1ccc(F)cc1`, which relative growth is on record?
A: The relative growth was inactive: 1.01.

Q: `C[C@H]1CCCCO[C@H](CN(C)Cc2ccc(C(F)(F)F)cc2)[C@@H](C)CN([C@@H](C)CO)C(=O)c2cc(NS(C)(=O)=O)ccc2O1` was tested. Which relative growth did it give?
A: The relative growth was inactive: 0.974.

Q: `C=C1C(=O)O[C@@H]2/C=C(\CO[C@@H]3O[C@H](CO)[C@@H](O)[C@H](O)[C@H]3O)CC/C=C3\C[C@H](OC3=O)[C@@H]12` was tested. Which relative growth did it give?
A: The relative growth was inactive: 0.997.

Q: `COc1ccc(S(=O)(=O)N(C)C[C@@H]2OCCCC[C@@H](C)Oc3ccc(NC(=O)C4CCCCC4)cc3C(=O)N([C@@H](C)CO)C[C@H]2C)cc1` was tested. Which relative growth did it give?
A: Its relative growth is inactive: 1.02.

Q: How did the relative growth turn out when `O=C(CN1CCOCC1)N[C@@H]1CC[C@@H](CCNC(=O)Nc2cc(F)ccc2F)O[C@H]1CO` was run?
A: Its relative growth is inactive: 0.996.

Q: For `Cc1noc(C)c1S(=O)(=O)N(C)C[C@@H]1Oc2ccc(NS(=O)(=O)c3cn(C)cn3)cc2C(=O)N([C@@H](C)CO)C[C@@H]1C`, which relative growth is on record?
A: Its relative growth is inactive: 1.03.

Q: With `COc1ccccc1CNC(=O)C[C@H]1C[C@H]2c3cc(NC(=O)c4ccc5c(c4)OCO5)ccc3O[C@H]2[C@@H](CO)O1` as the compound, how does the relative growth read?
A: The relative growth was inactive: 1.03.

Q: For `COc1ccc(CN(C)C[C@H]2OCCCC[C@@H](C)Oc3ccc(NS(=O)(=O)c4cccs4)cc3C(=O)N([C@H](C)CO)C[C@@H]2C)cc1`, which relative growth is on record?
A: The relative growth was inactive: 0.995.

Q: How did the relative growth turn out when `C[C@H]1CN([C@@H](C)CO)C(=O)c2cccc(NC(=O)C3CCOCC3)c2O[C@H]1CN(C)S(=O)(=O)c1cccs1` was run?
A: Its relative growth is inactive: 0.983.

Q: With `O=C(N[C@H]1CCCCNC1=O)c1ccco1` as the compound, how does the relative growth read?
A: Its relative growth is inactive: 0.98.

Q: How did the relative growth turn out when `C[C@@H]1CCCCO[C@H](CN(C)Cc2ccc3c(c2)OCO3)[C@H](C)CN([C@@H](C)CO)C(=O)c2cc(NC(=O)Nc3ccc4c(c3)OCO4)ccc2O1` was run?
A: The relative growth was inactive: 1.02.

Q: Which relative growth does the source give for `CC(=O)N(O)CCCCNC(=O)CCC(=O)N(O)CCCCCNC(=O)CCC(=O)N(O)CCCCCN` here?
A: The relative growth was inactive: 0.857.
